Measured values from the supplement of paper PMC10126150.
Sequences with one replicate were seen in a single cluster, so their values are uncertain.

System: ATP
Experiment: switch fluorescence ratio, 500 uM ATP over buffer (Cy3 cluster intensity, sum of 5 cycles each) (fold (ratio)); higher = stronger signal-on switching upon ATP binding; sequences stand for … in TCGTCGGCAGCGTCAGATGTGTATAAGAGACAGTTTTTTTTTTTTTTTTTTTTTTTTT…TC
Details: aptamer strand: ATP DNA aptamer (quencher-CACCTGGGGGAGTATTGCGGAGGAAGG + anchor), 100 nM annealed; ATP concentration: 500 uM; one replicate
Outline: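 Cy3-labelled switching-strand clusters on a modified Illumina MiSeq flow-cell were annealed to 100 nM quencher-labelled ATP aptamer, imaged in selection buffer, then imaged after 15 min with 500 uM ATP at 22 °C. Five buffer/ATP cycles ran, with NaOH stripping and re-annealing between them. The fluorescence ratio is summed target-cycle over summed buffer-cycle Cy3 intensity per cluster, averaged per switch-domain sequence. Clusters outside 100-1000 RFU were excluded.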
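Also: ATP exposure 15 min at 22 °C before imaging.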

For CCCTCGTTTT, the switch fluorescence ratio was 1.08.

With GCCCCAGACA the switch fluorescence ratio was 1.04.

CGAAACTCAT gave a switch fluorescence ratio of 1.02.

For TGGTTCCCGC, the switch fluorescence ratio was 1.1.

CGTCTACCTT showed a switch fluorescence ratio of 1.06.

With CGAAGGGGAT the switch fluorescence ratio was 0.988.

ACATCAGGCG gave a switch fluorescence ratio of 1.06.

CTACTGAAAA showed a switch fluorescence ratio of 1.17.

In the case of TTGGTGTCGA, the switch fluorescence ratio is reported as 1.01.

TTTCTACGCT showed a switch fluorescence ratio of 1.12.

In the case of GACGGAAAGC, the switch fluorescence ratio is reported as 1.88.

GGTCTATTGG gave a switch fluorescence ratio of 0.958.

For TCGCCCTAAC, the switch fluorescence ratio was 1.29.

In the case of AGCTAGGGTT, the switch fluorescence ratio is reported as 1.01.

Sequence GAAAACTTCA has a switch fluorescence ratio of 1.12.

For AGGACCGT, the switch fluorescence ratio was 1.01.

Sequence GTGCCCGCCA has a switch fluorescence ratio of 1.05.

Sequence GTTGACTAAC has a switch fluorescence ratio of 0.966.

Work on ACCCCCGGAT yielded a switch fluorescence ratio of 1.16.

AATGTTATAC was tested, and the switch fluorescence ratio was 1.01.

Sequence GCCTCAGGGC has a switch fluorescence ratio of 1.01.

For TAGTCGCGTG, the switch fluorescence ratio was 0.995.

For GACGCATGGG, the switch fluorescence ratio was 1.06.

Work on CCGTGCGGGT yielded a switch fluorescence ratio of 1.04.

CGACATCTAC was tested, and the switch fluorescence ratio was 1.84.

CTATATTAG gave a switch fluorescence ratio of 0.949.

GGGCCGCGGG showed a switch fluorescence ratio of 1.07.

For CGGCTCGGGA, the switch fluorescence ratio was 1.03.

TTAGACAGT gave a switch fluorescence ratio of 1.01.

TTGATACCAA was tested, and the switch fluorescence ratio was 1.03.

Sequence TACCACGTT has a switch fluorescence ratio of 1.04.

Sequence GGAGGGATGT has a switch fluorescence ratio of 1.01.

Sequence GATCGGTCAG has a switch fluorescence ratio of 1.01.

GATAATTAGA was tested, and the switch fluorescence ratio was 1.01.

In the case of TTCTTCGGAA, the switch fluorescence ratio is reported as 2.88.

TCTCACTCTC gave a switch fluorescence ratio of 1.02.

AGGTATCCGG showed a switch fluorescence ratio of 0.972.

With ACTAGGTTCT the switch fluorescence ratio was 1.03.

Work on CTCTAAGCTT yielded a switch fluorescence ratio of 1.09.

For ATAGAAAGA, the switch fluorescence ratio was 1.03.

CCTTGACAAT gave a switch fluorescence ratio of 2.12.

TTTACGGCGC was tested, and the switch fluorescence ratio was 1.06.

With GGTCATTCGA the switch fluorescence ratio was 0.991.

Work on CATCTATTGT yielded a switch fluorescence ratio of 1.

Work on TATTCTATTA yielded a switch fluorescence ratio of 0.998.

GGGAGTCGTT gave a switch fluorescence ratio of 1.

With TCCGCTCAGG the switch fluorescence ratio was 1.52.

Work on TGCCGTGATA yielded a switch fluorescence ratio of 1.23.

ACCGAGAAAC gave a switch fluorescence ratio of 1.02.

Sequence AAAACCGCTT has a switch fluorescence ratio of 1.19.

GATGGATTGC gave a switch fluorescence ratio of 1.04.

With TTGGTGCCTA the switch fluorescence ratio was 0.957.

GGAGTAGGCG was tested, and the switch fluorescence ratio was 1.04.

CTTGCAGGGT was tested, and the switch fluorescence ratio was 0.992.

For TGGACCGAAT, the switch fluorescence ratio was 1.03.

TGTCCAATTT showed a switch fluorescence ratio of 1.04.

AGGTTTCCTT showed a switch fluorescence ratio of 0.967.

In the case of ACGTCGTGGC, the switch fluorescence ratio is reported as 1.04.

In the case of TCCTTTTGCC, the switch fluorescence ratio is reported as 1.16.

In the case of ACTGTGCTCA, the switch fluorescence ratio is reported as 0.956.

With GAAATGACAA the switch fluorescence ratio was 0.979.

Sequence GTTGCTCACT has a switch fluorescence ratio of 0.986.

AAACGGTAG showed a switch fluorescence ratio of 1.04.

AACGGTGGGA gave a switch fluorescence ratio of 1.

Work on TTCGCAGAAT yielded a switch fluorescence ratio of 1.17.

For TGCCGCTCAG, the switch fluorescence ratio was 1.06.

Sequence CGTACGGCGA has a switch fluorescence ratio of 1.18.

For GCGGTACCAG, the switch fluorescence ratio was 1.

ATGGGCCCCA was tested, and the switch fluorescence ratio was 1.01.

GAGGGGCATA was tested, and the switch fluorescence ratio was 0.992.

In the case of TAGTATGGTT, the switch fluorescence ratio is reported as 0.996.

Sequence ACGTGTTCGC has a switch fluorescence ratio of 0.984.

TCACACATAC gave a switch fluorescence ratio of 1.78.

GTGGTTGCCC was tested, and the switch fluorescence ratio was 1.

With GAAGTCGACG the switch fluorescence ratio was 1.11.

Sequence GTCCCTTTAT has a switch fluorescence ratio of 1.16.

Sequence TTATCTGTAC has a switch fluorescence ratio of 1.09.

TAGTTTCAAG showed a switch fluorescence ratio of 1.

In the case of CGCATAGCTG, the switch fluorescence ratio is reported as 1.07.

GTGTTAACA gave a switch fluorescence ratio of 1.01.

For AAAGGTTTCA, the switch fluorescence ratio was 1.01.

Work on TGCATGCGTT yielded a switch fluorescence ratio of 1.03.

AATCTACATT was tested, and the switch fluorescence ratio was 1.05.

Sequence CCGGTAGACC has a switch fluorescence ratio of 1.09.

TTCTCCTTCT gave a switch fluorescence ratio of 1.06.

For GTCAATAAT, the switch fluorescence ratio was 1.05.

Work on CTAATGGGTC yielded a switch fluorescence ratio of 1.01.

AAAAACGCCT gave a switch fluorescence ratio of 1.08.

With CTAGTCTTCA the switch fluorescence ratio was 1.03.

Work on AATCTGGTGG yielded a switch fluorescence ratio of 0.99.

For TTAAGCAGAG, the switch fluorescence ratio was 0.972.

Work on GATTACGGCA yielded a switch fluorescence ratio of 1.07.

With AGTACAAG the switch fluorescence ratio was 1.

In the case of CGCCTGCCTA, the switch fluorescence ratio is reported as 1.04.

CCGGTAGCCC was tested, and the switch fluorescence ratio was 1.93.

With TTGGGGTCAC the switch fluorescence ratio was 0.975.

Work on GGTGAGGGGC yielded a switch fluorescence ratio of 0.948.

Work on ACACAGTAT yielded a switch fluorescence ratio of 1.07.

Sequence AGATTTGTTT has a switch fluorescence ratio of 1.03.

In the case of ATCCATTCTT, the switch fluorescence ratio is reported as 1.01.

CGCGGACTTT was tested, and the switch fluorescence ratio was 1.1.

AGAGTACCTA was tested, and the switch fluorescence ratio was 0.997.

Sequence CGATGTGTA has a switch fluorescence ratio of 1.02.

In the case of TCGCGATGGG, the switch fluorescence ratio is reported as 1.09.

Sequence TCGTTTAATC has a switch fluorescence ratio of 1.

ACTTTATATT gave a switch fluorescence ratio of 1.06.

With CGGCATCCTG the switch fluorescence ratio was 0.992.

With CTTTCCGGCG the switch fluorescence ratio was 1.32.

TCAGATAATC was tested, and the switch fluorescence ratio was 1.01.

With CGACAAATGA the switch fluorescence ratio was 1.14.

Work on ACAGCGATTT yielded a switch fluorescence ratio of 1.04.

TATTCAAATC was tested, and the switch fluorescence ratio was 1.03.

AAGGGCGTTA showed a switch fluorescence ratio of 1.02.

CGCTATCCGC gave a switch fluorescence ratio of 1.23.

CGCGGACTCG was tested, and the switch fluorescence ratio was 1.29.

For GGTACAGCCG, the switch fluorescence ratio was 1.02.

TTTGTCGCG was tested, and the switch fluorescence ratio was 1.02.

ATATCGGGAA gave a switch fluorescence ratio of 1.01.

TTTCAAGTTA showed a switch fluorescence ratio of 1.04.

Work on TAGCTAGGGA yielded a switch fluorescence ratio of 0.992.

With GGTTATTCGA the switch fluorescence ratio was 0.973.

TAGCCCCCCG showed a switch fluorescence ratio of 1.08.

AGGACAAAGT showed a switch fluorescence ratio of 0.973.

Work on CGTCGTCCGG yielded a switch fluorescence ratio of 1.02.

GGTGATGGCT gave a switch fluorescence ratio of 0.889.

For CGCTGCAAAT, the switch fluorescence ratio was 4.28.

For TACATTCGGA, the switch fluorescence ratio was 1.03.

Sequence TTACCCCACG has a switch fluorescence ratio of 1.55.

Sequence TAGTAATCTA has a switch fluorescence ratio of 1.79.

For GCGGGTGTCT, the switch fluorescence ratio was 0.988.

TTCCGGCCAG was tested, and the switch fluorescence ratio was 1.03.

With TTACGAGGGT the switch fluorescence ratio was 0.941.

GATGCACAAC was tested, and the switch fluorescence ratio was 1.98.

TTCTATATCG showed a switch fluorescence ratio of 0.945.

AACCGGTCTT showed a switch fluorescence ratio of 0.976.

CCTTATGCTC gave a switch fluorescence ratio of 1.32.

With CAGTTATGGT the switch fluorescence ratio was 0.99.

In the case of AAGCTAGAGT, the switch fluorescence ratio is reported as 1.

In the case of TTAGGGTGTG, the switch fluorescence ratio is reported as 1.03.

For CTTAATGGAT, the switch fluorescence ratio was 0.998.

With TTTGCATGTT the switch fluorescence ratio was 1.01.

Work on TGCTCATTCA yielded a switch fluorescence ratio of 1.02.

TATCGTCA gave a switch fluorescence ratio of 1.

With TCGTAGCGTG the switch fluorescence ratio was 0.99.

For CAAAGCGGTG, the switch fluorescence ratio was 1.03.

GGGAATCAGC gave a switch fluorescence ratio of 0.985.

GGTTGTGAGA gave a switch fluorescence ratio of 0.944.

Sequence GTAAAGGTTT has a switch fluorescence ratio of 0.952.

In the case of CTCAGAAGGC, the switch fluorescence ratio is reported as 1.1.

CGACGTCATC showed a switch fluorescence ratio of 1.67.

ATCAGGCATA was tested, and the switch fluorescence ratio was 1.01.

TCGGCCTCCG showed a switch fluorescence ratio of 1.02.

TGGTGAGTAC was tested, and the switch fluorescence ratio was 0.809.

Work on GAAGGGATAA yielded a switch fluorescence ratio of 1.06.

ACGGATATTC showed a switch fluorescence ratio of 1.07.

For GGTTGTCCAT, the switch fluorescence ratio was 0.953.

AATAGCCTGC was tested, and the switch fluorescence ratio was 0.982.
